# The whole screen tested about 190,000 compounds, of which about 270 (0.14%) were called active. Inconclusive means that the source gave no clear call. Such entries were picked first, then a sample of the others.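 The calls were made as follows: active = GTP binding activity at least 20% away from the 100% baseline, either lowered as inhibitor or raised as activator; inconclusive = flagged as likely green fluorescent, judged across all proteins in the well; inactive = the rest.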
# Target: GTPase HRas (Homo sapiens) (UniProt P01112)
# Test: HRas wt fluorescent GTP binding changes, either direction – biochemical, wildtype, bead-based flow cytometry, multiplex, primary screen (AID 759);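 also: 0% = unlabeled GTP competition control and 100% = no-compound control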
# Settings: GST-Ras wt beads, Bodipy-FL-GTP binding, at 10 µM, actives lie on both sides
# Chain of UniProt P01112 (P01112 whole entry, looked up): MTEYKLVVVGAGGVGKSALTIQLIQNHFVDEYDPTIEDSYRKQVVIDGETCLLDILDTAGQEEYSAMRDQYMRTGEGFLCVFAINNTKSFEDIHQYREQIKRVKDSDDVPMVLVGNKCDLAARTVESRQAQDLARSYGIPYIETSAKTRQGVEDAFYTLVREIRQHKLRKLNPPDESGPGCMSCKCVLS
row,SMILES,GTP binding activity
1,Cc1ccc2nc3c(cc(C(=O)NC4CCCC4)c(=N)n3CCCn3ccnc3)c(=O)n2c1,inconclusive: 91%
2,CCn1c(OC)nc2c1c(=O)n(C)c(=O)n2C,inconclusive: 93%
3,O=C(CCCOc1ccccc1)NCc1ccco1,inconclusive: 108%
4,COc1ccc(C2(CNC(=O)c3cccs3)CCOCC2)cc1,inactive: 97%
5,CC(C)N(CCc1ccncc1)C(=O)Nc1ccc(Cl)c(Cl)c1,inactive: 100%
6,CN(C(=O)CSc1nnc(-c2ccccc2)o1)c1c(N)n(Cc2ccccc2)c(=O)[nH]c1=O,inactive: 94%
7,O=C(Nc1ccccc1C(=O)O)c1ccc(Br)c(S(=O)(=O)NCc2ccccc2)c1,inconclusive: 92%
8,O=C(Nc1ccccc1[N+](=O)[O-])c1nc[nH]c1C(=O)NCCO,inconclusive: 93%
9,Cc1cc(C)n(-c2ccc(C(=O)Nc3cccc(S(=O)(=O)N(C)C)c3)cc2)n1,inconclusive: 91%
10,CCC1=NN2C(=N)/C(=C\c3cccn3-c3c(C)cccc3C)C(=O)N=C2S1,inconclusive: 85%
11,O=C(CSCc1nc2c(nnn2Cc2ccc(F)cc2)c(=O)[nH]1)Nc1cccc(C(F)(F)F)c1,inconclusive: 93%
12,CSCCC(NC(=O)c1ccco1)C(=O)NCc1ccc(F)cc1 (stereo unspecified),inconclusive: 103%
13,CN1CCN(C2=C(Cl)C(=O)N(Cc3ccccc3)C2=O)CC1,inconclusive: 104%
14,Nc1c(C(=O)NCc2ccco2)sc2nc3c(cc12)C(=O)CCC3,inconclusive: 96%
15,CC(=O)Nc1ccc(S(=O)(=O)NCCc2ccccn2)cc1,inconclusive: 97%
16,CCOc1cc(S(=O)(=O)NCc2ccccn2)ccc1Cl,inconclusive: 102%
17,Cc1cccc(NC(=O)CSc2nc3[nH]ncc3c(=O)[nH]2)c1,inactive: 97%
18,N#C/C(=C/c1ccccc1[N+](=O)[O-])c1nc(C2CC2)cs1,inconclusive: 94%
19,Cc1cccc(-c2nnc(NC(=O)c3ccc(N4C(=O)CCC4=O)cc3)s2)c1,inactive: 105%
20,Fc1ccc(Oc2nc(-c3ccccc3)nnc2C(F)(F)F)cc1,inconclusive: 103%
21,CS(=O)(=O)N1CCC(C(=O)N2CCN(c3ccccc3F)CC2)CC1,inactive: 98%
22,Cc1cccc(-n2c(SCC(N)=O)nnc2-c2ccccn2)c1C,inconclusive: 106%
23,O=C(NNC(=O)C1CCN(c2ncccn2)CC1)c1ccncc1,inconclusive: 95%
24,COc1ccccc1NC(=O)c1ccccc1SC,inconclusive: 106%
25,Cc1ccc(S(=O)(=O)Nc2cccc3c2CCCC3)cc1,inactive: 99%
26,CC(=O)c1cccc(S(=O)(=O)Nc2cccc(S(=O)(=O)NC3=NCCC3)c2)c1,inconclusive: 98%

# From PubChem BioAssay AID759 (NMMLSC, 2007)
